Results published in patent EP4524159A1, “ANTIBODY AND USE THEREOF” (priority 2022, dated 2023).

B1: 5B8-MMAE (conjugate)
VH: EVQLKESGGGLVQPGGSLRISCATSGLTFTHYHMSWVRQPPGKAPEWLAIIRNKAYGYTTDYSASVRGRFTISRDDSQSILYLQMNTLRAEDSATYYCVREGGYGYDGTFAYWGQGTTVTVSS
VL: EIVLTQSPASLAVSLGQRATISCRASESVDNYGISFMSWFQQKPGQPPKLLIYAASNQGSGVPDRFSGSGSGTDFSLNIHPMEEDDTAMYFCQQSKEVPRTFGGGTKLEIK
B2: 8C9-MMAE (conjugate)
VH: B1 VH with A90P
VL: B1 VL with E1D, V3Q, L4M, S38N
B3: 1CP-125-MMAE: humanized antibody 1CP-125 linked to vc-MMAE (conjugate)
heavy: QVQLVQSGAEVKKPGASVKVSCKASGYNFISYWLHWVRQAPGQGLEWMGGIYPGNTDTTYNQKFKGRVTMTADTSTSTVYMELSSLRSEDTAVYYCIRYDYDRGMDYWGQGTLVTVSS[left out - human IgG1 constant region]
light: DIQMTQSPSSLSASVGDRVTITCRASEDIYYRLAWYQQKPGKAPKLLISGATALETGVPSRFSGSGSGKDYTFTISSLQPEDIATYYCQHYWNIPWTFGQGTKVEIKRTVAAPSVFIFPPSDEQLKSGTASVVCLLNNFYPREAKVQWKVDNALQSGNSQESVTEQDSKDSTYSLSSTLTLSKADYEKHKVYACEVTHQGLSSPVTKSFNRGEC

Columns and labels:
[1] = Drug : antibody ratio (DAR) of antibody-vc-MMAE conjugates by hydrophobic HPLC; conditions: for DAR2 (%): share of DAR2 species; for DAR4 (%): share of DAR4 species; for DAR6 (%): share of DAR6 species; for DAR8 (%): share of DAR8 species
Experimental: The specific operation was to reduce each antibody and the control antibody CD27H10 (27H10 antibody in WO2018112334A1) with a 2-fold molar amount of […] (TECP) at 4 °C for 1 hour. A 7-fold molar amount of vcMMAE was then added for ligation at 4-25 °C for 1 h, and then the reaction mixture was dialyzed against 1 × PBS pH 8.0 and filtered for sterilization. Drug : antibody ratio (DAR) was detected by hydrophobic kurtosis with HLPC, and the molecular coupling results are shown in Table 14. Table 14 DAR values of antibody-drug conjugates
The humanized antibodies 1CP-125, 1CP-117 and 1CP-152 were subjected to linking to form ADC, and the linking process was the same as in example 18. Table 18 DAR values of antibody-drug conjugates

MCF7 = test: In vitro killing by chimeric antibody-vc-MMAE conjugate (CellTiter-Glo, 120 h); type: cell-based; conditions: MCF7 (120 h), cells that do not express CDCP1
Experimental: The inhibition activity of antibody on tumor cell growth was calculated by graphpad fitting based on the signal value and antibody concentration, and the results are shown in FIG. 5 and Table 15. Table 15 IC50 value of anti-CDCP1 chimeric antibody -vcMMAE conjugate on tumor cells

[2] = chimeric antibody-vc-MMAE conjugates, hydrophobic HPLC

| Molecule | DAR [1, 2] | DAR2 (%) ([1]; hydrophobic HPLC) | DAR4 (%) ([1]; hydrophobic HPLC) | DAR6 (%) ([1]; hydrophobic HPLC) | DAR8 (%) ([1]; hydrophobic HPLC) | IC50 (MCF7) | DAR ([1]; humanized antibody-vc-MMAE conjugates, as printed in Table 19 (HCC1806)) | DAR ([1]; humanized antibody-vc-MMAE conjugates, as printed in Table 20 (HCT116)) |
| --- | --- | --- | --- | --- | --- | --- | --- | --- |
| B1 | 3.85 | 30.01% | 38.18% | 12.42% | 12.16% | – | – | – |
| B2 | 3.44 | 34.27% | 34.56% | 12.32% | 7.73% | > 200 nM | – | – |
| B3 | – | – | – | – | – | – | 4.3 | 4.3 |

Where a chain is given by its changes, count along the chain named.
